Data from the supplement of paper PMC4967469.
By IC50 is meant the dose at which the fit gives 50% viability; fits outside the tested doses are given as limits. AUC is the area under the same curve over the 256-fold range up to the top dose, as a fraction; the more sensitive the line, the further below 1. The top dose, if marked as inferred, comes from the curve model; the source does not state it.

Each cell line was assayed with O=C1NC(=NCc2cccs2)S/C1=C\c1ccc2ncccc2c1 [RO-3306] (assay: Viability of human cancer cell lines after 72 h of drug (GDSC screen)). Settings: top dose 5 µM; top dose inferred.
Protocol: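 Human cancer cell lines in 384-well plates, medium with 10% serum, drug for 72 h over a 256-fold dose range (nine 2-fold or five 4-fold steps up to the top dose). Adherent lines were fixed and stained with the nucleic acid dye Syto60, suspension lines read with resazurin; signal relative to control wells, capped at 0 and 100%. One two-parameter sigmoid per drug and line, fitted in a mixed model over all curves with the slope shared within a line.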

Question: How did the AUC turn out when “P30-OHK (lymphoblastic leukaemia, suspension)” was run?
Answer: 0.99

Question: And the IC50?
Answer: > 5 µM

Question: For “P31-FUJ (acute myeloid leukaemia, suspension)”, which AUC is on record?
Answer: 0.996

Question: And the IC50?
Answer: > 5 µM

Question: For P32-ISH (Burkitt lymphoma, suspension), which AUC is on record?
Answer: 0.993

Question: What about the IC50 of the same cell line?
Answer: > 5 µM

Question: What does the source list for PA-1 (ovary, adherent)?
Answer: AUC: 0.992; IC50: > 5 µM

Question: Which results are given for PA-TU-8902 (pancreas, adherent)?
Answer: AUC: 0.982; IC50: > 5 µM

Question: With PANC-02-03 (pancreas, adherent) as the cell line, how does the AUC read?
Answer: 0.941

Question: What about the IC50 of the same cell line?
Answer: > 5 µM

Question: What does the source list for PANC-03-27 (pancreas, adherent)?
Answer: AUC: 0.981; IC50: > 5 µM

Question: For PANC-04-03 (pancreas, adherent), which AUC is on record?
Answer: 0.972

Question: What about the IC50 of the same cell line?
Answer: > 5 µM

Question: Which AUC does the source give for PANC-10-05 (pancreas, adherent) here?
Answer: 0.98

Question: What about the IC50 of the same cell line?
Answer: > 5 µM

Question: For PC-3 (prostate, adherent), which AUC is on record?
Answer: 0.888

Question: And the IC50?
Answer: > 5 µM

Question: What does the source list for “PC-3 [JPC-3] (lung adenocarcinoma, adherent)”?
Answer: AUC: 0.968; IC50: > 5 µM

Question: Which AUC does the source give for PC-14 (lung adenocarcinoma, adherent) here?
Answer: 0.975

Question: And the IC50?
Answer: > 5 µM

Question: Which results are given for PCI-4B (head and neck, adherent)?
Answer: AUC: 0.881; IC50: 4.76 µM

Question: Which results are given for PCI-6A (head and neck, adherent)?
Answer: AUC: 0.685; IC50: 1.02 µM

Question: For PCI-15A (head and neck, adherent), which AUC is on record?
Answer: 0.965

Question: What about the IC50 of the same cell line?
Answer: > 5 µM

Question: Which results are given for PCI-30 (head and neck, adherent)?
Answer: AUC: 0.96; IC50: > 5 µM

Question: Which results are given for PE/CA-PJ15 (head and neck, adherent)?
Answer: AUC: 0.833; IC50: 3.6 µM

Question: For PEO1 (ovary, adherent), which AUC is on record?
Answer: 0.924

Question: And the IC50?
Answer: > 5 µM

Question: Which AUC does the source give for “PF-382 (T-cell lymphoblastic leukaemia, suspension)” here?
Answer: 0.986

Question: What about the IC50 of the same cell line?
Answer: > 5 µM

Question: With PFSK-1 (medulloblastoma, adherent) as the cell line, how does the AUC read?
Answer: 0.901

Question: What about the IC50 of the same cell line?
Answer: > 5 µM

Question: How did the AUC turn out when PL4 (pancreas, adherent) was run?
Answer: 0.976

Question: And the IC50?
Answer: > 5 µM

Question: Which results are given for PSN1 (pancreas, adherent)?
Answer: AUC: 0.865; IC50: 3.3 µM

Question: With PWR-1E (prostate, adherent) as the cell line, how does the AUC read?
Answer: 0.9

Question: And the IC50?
Answer: > 5 µM

Question: QGP-1 (pancreas, adherent) was tested. Which AUC did it give?
Answer: 0.979

Question: What about the IC50 of the same cell line?
Answer: > 5 µM

Question: Which results are given for “QIMR-WIL (acute myeloid leukaemia, suspension)”?
Answer: AUC: 0.964; IC50: > 5 µM

Question: With RC-K8 (B-cell lymphoma, suspension) as the cell line, how does the AUC read?
Answer: 0.993

Question: What about the IC50 of the same cell line?
Answer: > 5 µM

Question: Which results are given for RCC10RGB (kidney, adherent)?
Answer: AUC: 0.909; IC50: > 5 µM

Question: How did the AUC turn out when RCC-AB (kidney, adherent) was run?
Answer: 0.943

Question: And the IC50?
Answer: > 5 µM

Question: For RCC-ER (kidney, adherent), which AUC is on record?
Answer: 0.962

Question: And the IC50?
Answer: > 5 µM

Question: Which results are given for RCC-FG2 (kidney, adherent)?
Answer: AUC: 0.967; IC50: > 5 µM

Question: RCC-JF (kidney, adherent) was tested. Which AUC did it give?
Answer: 0.928

Question: And the IC50?
Answer: > 5 µM

Question: Which AUC does the source give for RCC-JW (kidney, adherent) here?
Answer: 0.978

Question: What about the IC50 of the same cell line?
Answer: > 5 µM

Question: What does the source list for RCC-MF (kidney, adherent)?
Answer: AUC: 0.914; IC50: > 5 µM

Question: How did the AUC turn out when RCH-ACV (B-cell leukaemia, suspension) was run?
Answer: 0.991

Question: And the IC50?
Answer: > 5 µM

Question: With RCM-1 (large intestine, adherent) as the cell line, how does the AUC read?
Answer: 0.978

Question: And the IC50?
Answer: > 5 µM

Question: Which AUC does the source give for REH (B-cell leukaemia, suspension) here?
Answer: 0.984

Question: What about the IC50 of the same cell line?
Answer: > 5 µM

Question: With RERF-GC-1B (stomach, adherent) as the cell line, how does the AUC read?
Answer: 0.954

Question: What about the IC50 of the same cell line?
Answer: > 5 µM

Question: “RERF-LC-KJ (lung adenocarcinoma, adherent)” was tested. Which AUC did it give?
Answer: 0.939

Question: What about the IC50 of the same cell line?
Answer: > 5 µM

Question: With “RERF-LC-MS (lung adenocarcinoma, adherent)” as the cell line, how does the AUC read?
Answer: 0.987

Question: And the IC50?
Answer: > 5 µM

Question: “RERF-LC-Sq1 (lung squamous cell carcinoma, adherent)” was tested. Which AUC did it give?
Answer: 0.933

Question: What about the IC50 of the same cell line?
Answer: > 5 µM

Question: With RF-48 (stomach, adherent) as the cell line, how does the AUC read?
Answer: 0.984

Question: And the IC50?
Answer: > 5 µM

Question: With RH-1 (rhabdomyosarcoma, adherent) as the cell line, how does the AUC read?
Answer: 0.981

Question: And the IC50?
Answer: > 5 µM

Question: Which AUC does the source give for RH-18 (rhabdomyosarcoma, adherent) here?
Answer: 0.959

Question: What about the IC50 of the same cell line?
Answer: > 5 µM

Question: How did the AUC turn out when RH-41 (rhabdomyosarcoma, adherent) was run?
Answer: 0.992

Question: What about the IC50 of the same cell line?
Answer: > 5 µM

Question: What does the source list for RKN (ovary, adherent)?
Answer: AUC: 0.955; IC50: > 5 µM

Question: For RL (B-cell lymphoma, suspension), which AUC is on record?
Answer: 0.99

Question: What about the IC50 of the same cell line?
Answer: > 5 µM

Question: What does the source list for RO82-W-1 (thyroid, adherent)?
Answer: AUC: 0.979; IC50: > 5 µM

Question: With ROS-50 (B-cell leukaemia, suspension) as the cell line, how does the AUC read?
Answer: 0.975

Question: And the IC50?
Answer: > 5 µM

Question: For RPMI-2650 (head and neck, adherent), which AUC is on record?
Answer: 0.97

Question: What about the IC50 of the same cell line?
Answer: > 5 µM

Question: Which AUC does the source give for “RPMI-6666 (Hodgkin lymphoma, suspension)” here?
Answer: 0.982

Question: And the IC50?
Answer: > 5 µM

Question: For RPMI-7951 (melanoma, adherent), which AUC is on record?
Answer: 0.923

Question: And the IC50?
Answer: > 5 µM

Question: How did the AUC turn out when RPMI-8226 (myeloma, suspension) was run?
Answer: 0.982

Question: What about the IC50 of the same cell line?
Answer: > 5 µM
